Patent publication US20150284450A1, “COMBINATION THERAPIES USING ANTI-PSEUDOMONAS PSL AND PCRV BINDING MOLECULES” (priority 2012, published 2015)

Assays:
[1] = tested on: P. aeruginosa serogroup 05 strain (PAO1.lux); assay: Opsonophagocytic killing (OPK) assay with luminescent PAO1.lux, HL-60 cells and baby rabbit serum; assay type: cell-based, Pseudomonas aeruginosa; conditions: FIG. 27A
Experimental: This example describes the evaluation of prioritized human IgG1 antibodies to promote OPK of P. aeruginosa. […] OPK assays were performed as described in (DiGiandomenico, A., et al., Infect Immun 72, 7012-7021 (2004)), with modifications. Briefly, assays were performed in 96-well plates using 0.025 ml of each OPK component; P. aeruginosa strains; diluted baby rabbit serum; differentiated HL-60 cells; and monoclonal antibody. In some OPK assays, luminescent P. aeruginosa strains, which were constructed as described (Choi, K. H., et al., Nat Methods 2, 443-448 (2005))., were used. Luminescent OPK assays were performed as described above but with determination of relative luciferase units (RLUs) using a Perkin Elmer ENVISION Multilabel plate reader (Perkin Elmer).

[2] = tested on: P. aeruginosa 6077 (exoU+); assay: Rabbit red blood cell lysis inhibition assay with strain 6077; assay type: cell-based, Pseudomonas aeruginosa; conditions: FIG. 27C
Experimental: (§1) Percent inhibition of cytotoxicity analysis was analysed for the parental V2L2 mAb, mAb166 (positive control) and R347 (negative control), where the antibodies were administered to cultured broncho-epithelial cell line A549 combined with log-phase P. aeruginosa strain 6077 (exoU+) at a MOI of approximately 10. A549 lysis was assayed by measuring released lactate dehydrogenase (LDH) activity and lysis in the presence of mAbs was compared to wells without mAb to determine percent inhibition. The V2L2 mAb, mAb166 (positive control) and R347 (negative control) were evaluated for their ability to prevent lysis of RBCs, where the antibodies were mixed with log-phase P. aeruginosa 6077 (exoU^+) and washed rabbit red blood cells (RBCs) and incubated for 2 hours at 37°. Intact RBCs were pelleted and the extent of lysis determined by measuring the OD405 of the cell-free supernatant. Lysis in the presence of anti-PcrV mAbs was compared to wells without mAb to determine percent inhibition.

[3] = tested on: P. aeruginosa 6206 (O11-ExoU+); assay: Acute pneumonia model in mice, strain 6206; assay type: in vivo, Pseudomonas aeruginosa
Experimental: Antibodies or PBS were administered 24 hours before infection in each model. P. aeruginosa acute pneumonia, keratitis, and thermal injury infection models were performed as described (DiGiandomenico, A., et al., Proc Natl Acad Sci USA 104, 4624-4629 (2007)), with modifications. In the acute pneumonia model, BALB/c mice (The Jackson Laboratory) were infected with P. aeruginosa strains suspended in a 0.05 ml inoculum. In the thermal injury model, CF-1 mice (Charles River) received a 10% total body surface area burn with a metal brand heated to 92° C. for 10 seconds. Animals were infected subcutaneously with P. aeruginosa strain 6077 at the indicated dose. For organ burden experiments, acute pneumonia was induced in mice followed by harvesting of lungs, spleens, and kidneys 24 hours post-infection for determination of CFU.

P. aeruginosa 6206 = assay: Inhibition of RBC lysis with strain 6206; assay type: cell-based, Pseudomonas aeruginosa; conditions: FIG. 19C
Experimental: as §1
As shown in FIG. 19 (A-C), percent inhibition of cytotoxicity was analyzed for both Bs2-V2L2 and Bs3-V2L2 using both (A) 6206 and (B) 6206ΔpslA infected cells, and (C) percent inhibition of RBC lysis was analyzed for Bs2-V2L2-2C, Bs3-V2L2-2C and Bs4-V2L2-2C using 6206 infected cells.

[4] = tested on: P. aeruginosa PAO1.lux attachment to A549 cells; assay: Cell attachment assay, PAO1.lux on A549 cells; assay type: cell-based, Pseudomonas aeruginosa; conditions: FIG. 27B
Experimental: Anti-Psl antibodies were added to a confluent monolayer of A549 cells (an adenocarcinoma human alveolar basal epithelial cell line) grown in opaque 96-well plates (Nunc Nunclon Delta). Log-phase luminescent P. aeruginosa PAO1 strain (PAO1.lux) was added at an MOI of 10. After incubation of PAO1.lux with A549 cells at 37° C. for 1 hour, the A549 cells were washed, followed by addition of LB+0.5% glucose. Bacteria were quantified following a brief incubation at 37° C. as performed in the OPK assay described in Example 2. Measurements from wells without A549 cells were used to correct for non-specific binding.

[5] = 9.5×10^5 CFU 6206, 15.0, 5.0 and 1.0 mg/kg prophylaxis, FIG. 25D

B1: Bs4-V2L2-2C: W4-RAD scFv inserted in hinge region of V2L2 IgG; light and heavy chain SEQ ID NOS: 327 and 328 (protein)
light: AIQMTQSPSSLSASVGDRVTITCRASQGIRNDLGWYQQKPGKAPKLVIYSASTLQSGVPSRFSGSGSGTDFTLSISSLQPDDFATYYCLQDYNYPWTFGQGTKVEIKRTVAAPSVFIFPPSDEQLKSGTASVVCLLNNFYPREAKVQWKVDNALQSGNSQESVTEQDSKDSTYSLSSTLTLSKADYEKHKVYACEVTHQGLSSPVTKSFNRGEC
heavy: EMQLLESGGGLVQPGGSLRLSCAASGFTFSSYAMNWVRQAPGEGLEWVSAITISGITAYYTDSVKGRFTISRDNSKNTLYLQMNSLRAGDTAVYYCAKEEFLPGTHYYYGMDVWGQGTTVTVSSASTKGPSVFPLAPSSKSTSGGTAALGCLVKDYFPEPVTVSWNSGALTSGVHTFPAVLQSSGLYSLSSVVTVPSSSLGTQTYICNVNHKPSNTKVDKRVEPKSCGGGGSGGGGSEVQLLESGPGLVKPSETLSLTCNVAGGSISPYYWTWIRQPPGKCLELIGYIHSSGYTDYNPSLKSRVTISGDTSKKQFSLHVSSVTAADTAVYFCARADWDLLHALDIWGQGTLVTVSSGGGGSGGGGSGGGGSGGGGSEIVLTQSPSSLSTSVGDRVTITCRASQSIRSHLNWYQQKPGKAPKLLIYGASNLQSGVPSRFSGSGSGTDFTLTISSLQPEDFATYYCQQSYSFPLTFGCGTKLEIKGGGGSGGGGS[letters of human IgG1 Fc not shown]
modifications: Bs4-V2L2-C2 VL
- difference in functional activity between Bs4-WT, Bs4-GL and Bs4-GLO, OPK assay [1]: No in vitro difference in functional activities
- difference in functional activity between Bs4-WT, Bs4-GL and Bs4-GLO, RBC lysis anti-cytotoxicity assay [2]: No in vitro difference in functional activities
- bacterial burden in the lung [3, 5]: rapid and efficient bacterial clearance was observed from the lung
- bacterial dissemination to the spleen and kidneys [3, 5]: bacterial dissemination to the spleen and kidneys were also ablated
- protection against lethal pneumonia, ranking ([3]; 6206 (ExoU+), 0.1-15 mg/kg, FIG. 21I): most effective in protection against lethal pneumonia
- survival activity in comparison to Bs3-V2L2 ([3]; 6206, 0.5 mg/kg, FIG. 21D): greater activity in comparison to Bs3-V2L2
- survival activity in comparison to Bs2-V2L2 (results not statistically significant) ([3]; 6206, 1.0 mg/kg, FIG. 21C): appeared to have greater activity in comparison to Bs2-V2L2
- survival activity in comparison to the W4 + V2L2 antibody mixture ([3]; 6206, Bs4 2 and 1 mg/kg vs. mixture 1.0 and 0.5 mg/kg each, FIG. 21E): greater activity in comparison to the antibody mixture
- survival activity in comparison to Bs2-V2L2 ([3]; 6206, both 1.0 and 0.5 mg/kg, FIG. 21B): greater activity in comparison to Bs2-V2L2
- inhibition of RBC lysis compared to parental V2L2 (P. aeruginosa 6206): inhibited RBC lysis at levels similar to the parental V2L2 antibody
- difference in functional activity between Bs4-WT, Bs4-GL and Bs4-GLO, anti-cell attachment assay [4]: No in vitro difference in functional activities
